# The supplement of paper PMC7826260
# Some of the results follow. Cleavage of a single-stranded DNA pool by Rep nickase domains was read by sequencing (1 h at 37 °C, 3 µM enzyme); the outer parts of the 90-letter strands are left off. A value is the log2 ratio of uncut reads to the pool without enzyme; more negative means more cut, near 0 not cut, and no call is made. The scaling is to total reads; where an enzyme cuts many sequences, the uncut ones exceed 0.
# System: T1, Rep nickase domain of tomato golden mosaic virus
# T1 sequence (Rep 1-124, printed without the tag): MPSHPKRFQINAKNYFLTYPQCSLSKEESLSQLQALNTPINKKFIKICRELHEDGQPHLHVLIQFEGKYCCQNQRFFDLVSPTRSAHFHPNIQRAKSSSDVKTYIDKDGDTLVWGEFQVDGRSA
# Assay: uncleaved DNA left, log2 of reads against the no-enzyme library (log2 ratio); higher = less cleavage (more negative = more Rep cleavage of the k-mer); sequences stand for … in CTCGTCCG…ACCGGAGA
# Procedure: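 A pool of 90-nt single-stranded DNAs with seven random bases just before the constant AC of the nick site (name = the seven bases) was cut by 3 µM recombinant His6-SUMO-tagged Rep nickase domain (300 nM DNA, 50 mM HEPES pH 8.0, 50 mM NaCl, 1 mM MnCl2, 1 h, 37 °C, three replicates). Uncut DNA was amplified and sequenced.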
row,Sequence,uncleaved DNA left (log2)
1,TTGGGTT,-0.158
2,GGCGGTC,-0.00694
3,CAAAATT,-3.09
4,CCTCGGT,-0.0681
5,GTCAGAT,0.0881
6,ACGGAGA,0.158
7,TTCATTA,-0.157
8,CACGGTT,0.0207
9,CGGGTAT,0.138
10,GGCACCA,0.0511
11,AAGTCAA,0.0627
12,GACAAGT,0.0715
13,ACAAGTA,0.0849
14,AGATGCT,-0.146
15,TGGGCAA,-0.0334
16,CGGTGGG,-0.0459
17,TTGCTCA,-0.0356
18,AATTGAA,0.0474
19,CAACCAT,-0.18
20,ACCATAT,0.127

row,Sequence,uncleaved DNA left (log2)
1,ACCTCGC,-0.0663
2,GGCTGTG,0.0784
3,TGCTTGA,-0.0352
4,CCCCTAC,0.00384
5,TACTTCT,-0.667
6,GGTTCGT,0.114
7,TGTGACA,0.0284
8,TACGTGA,-0.0425
9,ACTGGCA,0.195
10,GTCTAAT,0.144
11,ACTTAGA,0.0236
12,GGCTGCG,-0.0502
13,TCGTCGT,-0.157
14,CCTGACA,-0.0343
15,ATATCGT,-0.0218
16,GTATTAC,-0.136
17,ATGACCG,-0.0357
18,ATCGTAG,0.0955
19,CCGGGCT,0.015
20,AATTAGA,0.0188
